In the supplement of paper PMC12217912:
The list shows a part of the results. The full chains were built here from the parent and the listed change. Inactive controls read about 0.05.

B1: TEV protease; numbered along this chain (parent)
chain: MGESLFKGPRDYNPISSSICHLTNESDGHTTSLYGIGFGPFIITNKHLFRRNNGTLVVQSLHGVFKVKDTTTLQQHLVDGRDMIIIRMPKDFPPFPQKLKFREPQREERICLVTTNFQTKSMSSMVSDTSCTFPSGDGIFWKHWIQTKDGQCGSPLVSTRDGFIVGIHSASNFTNTNNYFTSVPKNFMELLTNQEAQQWVSGWRLNADSVLWGGHKVFMVKPEEPFQPVKEATQL

Variants of: B1
Assay: raw area under fraction-flipped curve 0-4 h after induction (AUC4h, not background-subtracted), DNA-recorder readout of cleavage of the substrate (dimensionless); higher = more cleavage of the substrate by the protease variant
Conditions: temperature: 34 °C; time window: 0-4 h after rhamnose induction
Experimental: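 In vivo DNA recorder in E. coli TOP10(DE3) ΔrhaA at 34 °C. Each TEVp single-site mutant (parent TEVp 0) is paired with a single-site variant of the 7-mer TEVs (canonical ENLYFQ|S). The substrate sits between flexible linkers in a Bxb1-sfGFP-TEVs-SsrA fusion, so cleavage stabilises Bxb1 and speeds flipping of a recombination array, read by NGS. The value is the raw area under the fraction-flipped curve over 0-4 h after rhamnose induction (AUC4h), with ≥20 reads per time point. It is not background-subtracted; inactive controls average about 0.047.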
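Also: Bxb1 expression induced with 0.2% (w/v) L-rhamnose at OD600 near 0.5, cultures sampled hourly, flipped fraction per protease–substrate barcode pair counted by paired-end Illumina sequencing.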

Row | Variant | area with substrate ENLYFQA | area with substrate ENLYFQC | area with substrate ENLYFQG | area with substrate ENLYFQI | area with substrate ENLYFQK | area with substrate ENLYFQL | area with substrate ENLYFQM | area with substrate ENLYFQN | area with substrate ENLYFQP | area with substrate ENLYFQR | area with substrate ENLYFQS | area with substrate ENLYFQT | area with substrate ENLYFQV | area with substrate ENLYFQW | area with substrate ENLYFQY | area with substrate ENLYFQD | area with substrate ENLYFQE | area with substrate ENLYFQF | area with substrate ENLYFQH | area with substrate ENLYFQQ
1 | MGESLFKGPRDYHPISSSICHLTNESDGHTTSLYGIGFGPFIITNKHLFRRNNGTLVVQSLHGVFKVKDTTTLQQHLVDGRDMIIIRMPKDFPPFPQKLKFREPQREERICLVTTNFQTKSMSSMVSDTSCTFPSGDGIFWKHWIQTKDGQCGSPLVSTRDGFIVGIHSASNFTNTNNYFTSVPKNFMELLTNQEAQQWVSGWRLNADSVLWGGHKVFMVKPEEPFQPVKEATQL [N13H] | 0.1 | 0.131 | 0.114 | 0.0797 | 0.0674 | 0.0708 | 0.103 | 0.0841 | 0.0515 | 0.0545 | 0.101 | 0.0718 | 0.0578 | 0.063 | 0.0959 | – | – | – | – | –
2 | MGESLFKGPRDYNHISSSICHLTNESDGHTTSLYGIGFGPFIITNKHLFRRNNGTLVVQSLHGVFKVKDTTTLQQHLVDGRDMIIIRMPKDFPPFPQKLKFREPQREERICLVTTNFQTKSMSSMVSDTSCTFPSGDGIFWKHWIQTKDGQCGSPLVSTRDGFIVGIHSASNFTNTNNYFTSVPKNFMELLTNQEAQQWVSGWRLNADSVLWGGHKVFMVKPEEPFQPVKEATQL [P14H] | 0.104 | 0.0938 | – | 0.0509 | – | 0.0904 | 0.0893 | 0.0933 | 0.0687 | 0.0273 | 0.101 | – | 0.0511 | 0.0717 | – | 0.0609 | 0.0701 | 0.0747 | 0.0946 | 0.0686
3 | MGESLFKGPRDYNKISSSICHLTNESDGHTTSLYGIGFGPFIITNKHLFRRNNGTLVVQSLHGVFKVKDTTTLQQHLVDGRDMIIIRMPKDFPPFPQKLKFREPQREERICLVTTNFQTKSMSSMVSDTSCTFPSGDGIFWKHWIQTKDGQCGSPLVSTRDGFIVGIHSASNFTNTNNYFTSVPKNFMELLTNQEAQQWVSGWRLNADSVLWGGHKVFMVKPEEPFQPVKEATQL [P14K] | 0.104 | 0.068 | 0.0583 | 0.0488 | – | 0.058 | 0.0783 | 0.0521 | – | 0.0603 | 0.0918 | – | 0.0566 | – | – | – | – | 0.0709 | 0.0654 | –
4 | MGESLFKGPRDYNEISSSICHLTNESDGHTTSLYGIGFGPFIITNKHLFRRNNGTLVVQSLHGVFKVKDTTTLQQHLVDGRDMIIIRMPKDFPPFPQKLKFREPQREERICLVTTNFQTKSMSSMVSDTSCTFPSGDGIFWKHWIQTKDGQCGSPLVSTRDGFIVGIHSASNFTNTNNYFTSVPKNFMELLTNQEAQQWVSGWRLNADSVLWGGHKVFMVKPEEPFQPVKEATQL [P14E] | 0.107 | 0.12 | 0.0968 | – | 0.059 | – | 0.0962 | 0.0746 | – | 0.0622 | 0.101 | 0.0645 | – | – | – | 0.0761 | 0.0667 | 0.0814 | 0.0845 | –
5 | MGESLFKGPRDYNPISSSICVLTNESDGHTTSLYGIGFGPFIITNKHLFRRNNGTLVVQSLHGVFKVKDTTTLQQHLVDGRDMIIIRMPKDFPPFPQKLKFREPQREERICLVTTNFQTKSMSSMVSDTSCTFPSGDGIFWKHWIQTKDGQCGSPLVSTRDGFIVGIHSASNFTNTNNYFTSVPKNFMELLTNQEAQQWVSGWRLNADSVLWGGHKVFMVKPEEPFQPVKEATQL [H21V] | 0.0984 | 0.0997 | 0.104 | 0.064 | 0.0622 | 0.0615 | – | 0.0764 | – | 0.0629 | 0.0961 | 0.0769 | 0.0595 | 0.0667 | 0.0755 | 0.0802 | – | – | 0.0873 | –
6 | MGESLFKGPRDNNPISSSICHLTNESDGHTTSLYGIGFGPFIITNKHLFRRNNGTLVVQSLHGVFKVKDTTTLQQHLVDGRDMIIIRMPKDFPPFPQKLKFREPQREERICLVTTNFQTKSMSSMVSDTSCTFPSGDGIFWKHWIQTKDGQCGSPLVSTRDGFIVGIHSASNFTNTNNYFTSVPKNFMELLTNQEAQQWVSGWRLNADSVLWGGHKVFMVKPEEPFQPVKEATQL [Y12N] | 0.124 | 0.131 | – | – | – | 0.056 | 0.0856 | 0.0525 | 0.0395 | 0.0517 | 0.0986 | 0.0627 | – | 0.0661 | – | – | – | 0.106 | – | –
7 | MGESLFKGPRDCNPISSSICHLTNESDGHTTSLYGIGFGPFIITNKHLFRRNNGTLVVQSLHGVFKVKDTTTLQQHLVDGRDMIIIRMPKDFPPFPQKLKFREPQREERICLVTTNFQTKSMSSMVSDTSCTFPSGDGIFWKHWIQTKDGQCGSPLVSTRDGFIVGIHSASNFTNTNNYFTSVPKNFMELLTNQEAQQWVSGWRLNADSVLWGGHKVFMVKPEEPFQPVKEATQL [Y12C] | 0.0712 | 0.0941 | 0.0907 | 0.0601 | 0.0592 | 0.0607 | 0.0632 | 0.0808 | – | 0.0744 | 0.096 | 0.0718 | – | – | – | – | 0.0563 | – | 0.08 | 0.0815
8 | MGESLFKGPRDMNPISSSICHLTNESDGHTTSLYGIGFGPFIITNKHLFRRNNGTLVVQSLHGVFKVKDTTTLQQHLVDGRDMIIIRMPKDFPPFPQKLKFREPQREERICLVTTNFQTKSMSSMVSDTSCTFPSGDGIFWKHWIQTKDGQCGSPLVSTRDGFIVGIHSASNFTNTNNYFTSVPKNFMELLTNQEAQQWVSGWRLNADSVLWGGHKVFMVKPEEPFQPVKEATQL [Y12M] | 0.112 | 0.121 | 0.105 | 0.0559 | 0.066 | 0.0528 | – | 0.0722 | 0.0444 | 0.0617 | 0.106 | 0.073 | 0.0485 | – | 0.0872 | – | – | – | 0.0766 | –
9 | MGESLFKGPDDYNPISSSICHLTNESDGHTTSLYGIGFGPFIITNKHLFRRNNGTLVVQSLHGVFKVKDTTTLQQHLVDGRDMIIIRMPKDFPPFPQKLKFREPQREERICLVTTNFQTKSMSSMVSDTSCTFPSGDGIFWKHWIQTKDGQCGSPLVSTRDGFIVGIHSASNFTNTNNYFTSVPKNFMELLTNQEAQQWVSGWRLNADSVLWGGHKVFMVKPEEPFQPVKEATQL [R10D] | 0.0946 | 0.105 | 0.0861 | – | – | 0.083 | 0.0819 | 0.0819 | 0.0634 | 0.0645 | 0.0969 | 0.0705 | 0.0681 | 0.0636 | – | 0.0553 | 0.0596 | – | 0.0655 | 0.0728
